Experimental data published in PubChem BioAssay AID1963576 (National Center for Advancing Translational Sciences (NCATS), 2024).
In all, about 46,000 compounds went through this assay and about 60 (0.1%) were called active. Inconclusive results (about 3%) are left out. The call rests on the fitted dose curve; in most records, active means well fitted inhibition curve with a large enough effect; inconclusive means small, poorly fitted or top-dose-only effect; inactive means no such curve, though single readings can be large or run the other way. Some of the results follow.

Assay: Primary qHTS assay for Inhibitors of ovarian cancer metastasis using an organotypic tumor microenvironment (TME) model. Further: nearly all actives have a fitted effect of over 65% in size.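 On activity change, negative = inhibition: plate controls were DMSO wells for no effect and tomatine positive control wells for full effect.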
Conditions: SKOV3ip1-GFP adhesion/invasion on 3D omental model, fluorescence; series mostly up to 45.8 µM; activity change, negative = inhibition: at the top concentration
Summary of the method: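 A 3D layer of primary human omental fibroblasts, mesothelial cells, fibronectin and collagen I, grown 48 hr, received SKOV3ip1-GFP cells in serum-free medium plus compounds at 0.36-46 umol/L. After 2 hr RT and 16 hr 37 C, fixed adherent GFP cells were counted; normalized to DMSO and tomatine.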

Activity change, negative = inhibition, inactive:
N#CC1=C(N)N(c2ccc(Cl)cc2)C2=C(C(=O)CCC2)C1c1cc(CN2CCOCC2)cs1 (stereo unspecified) 8.33%, COc1cccc(-c2nc3c(C#N)c[nH]n3c2NC2CCCCC2)c1 1.77%, COc1ccc(-c2csc3ncnc(Nc4ccc(OC)cc4OC)c23)cc1 -19.6%, COc1cccc(CNC(=O)CN(c2ccc(C)cc2)S(=O)(=O)N(C)C)c1OC 37.5%, CCc1cccc(NC(=O)Cn2c(=O)n(CC3CCC(C(=O)NC)CC3)c(=O)c3sccc32)c1 (stereo unspecified) 0.891%, CCOC(=O)CSc1nnc(-c2ccc(OC)cc2)o1 40%, CCN(CC)C(=O)c1sc2c(c1C)c(=O)n(-c1ccccc1)c(=O)n2CC(=O)N(CC)c1cccc(C)c1 2.3%, CCCCN(C)C(=O)CN1C(=O)c2cccnc2Oc2ccc(Cl)cc21 7.42%, COc1cc(NC(=O)CCS(=O)(=O)c2ccc(Br)cc2)cc(OC)c1 -9.67%, Cc1ccc(CNC(=O)c2ccc3c(c2)NC(=O)C(CS(=O)(=O)Cc2cccc(C)c2)N3)cc1 (stereo unspecified) 22.5%, Nc1ncnc2c1ncn2[C@@H]1O[C@@H](CO)[C@H](O)[C@H]1O 0.28%, C=C1C(=CC=C2CCC[C@]3(C)[C@@H]([C@H](C)CCCC(C)(C)O)CC[C@@H]23)C[C@@H](O)C[C@@H]1O 0.0997%, Cc1cn2c(=O)cc(COC(=O)COc3ccc(C)c(C)c3)nc2s1 -18.3%, CCCOc1ccc(C(=O)N(Cc2ccc(Cl)cc2)Cc2ccco2)cc1 -3.67%, Cc1c(C(=O)N2CCC(C(=O)Nc3ccc(F)c(Cl)c3)CC2)sc2nc[nH]c(=O)c12 -10.9%, Cc1ccc(NC(=O)Cn2c(=O)ccc3cc(S(=O)(=O)N4CCCC4)ccc32)cc1C 2.51%, COc1ccc(Cn2ccn(CC(=O)Nc3cc(C)ccc3C)c(=O)c2=O)cc1 -4.15%, Cn1c(CNC(=O)CSc2nc(-c3ccccc3F)nc3cc(=O)[nH]n23)nc2ccccc21 -4.45%, CC(C)c1ccc(-c2noc(SCC(=O)N3CCN(c4ccccc4F)CC3)n2)cc1 2.71%, O=C(NCc1cccs1)c1ccc2c(c1)sc1nc(-c3ccccc3)cn12 -20.1%, COc1ccc2c(c1)c(=O)c(C(=O)c1ccc(F)cc1)cn2CC(=O)Nc1ccc2c(c1)OCCO2 40%, COc1ccc(-c2cn3cccnc3n2)cc1NC(=O)c1ccccc1C(F)(F)F -0.566%, COc1cc(CN(C(=O)c2ccccc2)c2ccccn2)cc(OC)c1OC 3.24%, Cc1cc2nn(-c3ccc(F)cc3)nc2cc1NC(=O)c1ccc(C(C)(C)C)cc1 -5.97%, CCCOc1ccc(C2C(=O)N(C3CCCCCC3)CC(=O)N2C(C)C)cc1OC (stereo unspecified) 18.7%, COc1ccc(-c2oc3ncn4nc(-c5ccccc5OC)nc4c3c2-c2ccc(OC)cc2)cc1 -8.97%, OCCN1CCN(c2ncnc3c2cnn3-c2cccc(Cl)c2)CC1 -4.63%, COc1cc(OC)cc(-n2c(=O)c3sccc3n(Cc3cc(=O)n4c(C)cccc4n3)c2=O)c1 4.14%, Cc1ccc2c(CC(=O)Nc3nnc(C(C)C)s3)coc2c1C -6.1%, Cc1nc(N2CCCC2)ncc1C(=O)Nc1ccc(OC(F)(F)F)cc1 -15.9%, COc1ccc(OCc2ccc(-c3nc(C#N)c(NCc4ccc(F)cc4)o3)o2)cc1 -7.35%, CCOC(=O)c1cc(-c2ccc(F)cc2)n(CCC(=O)Nc2nc3cc(C)c(C)cc3s2)c1C -1.34%, CCOc1ccc(-n2c(-c3ccc(Br)cc3)cc3c2CC(C)(C)CC3=O)cc1 -5.16%, Cc1nnc2c3ccccc3nc(Nc3ccc(F)cc3Cl)n12 7.61%, Cc1cccc(N(C)S(=O)(=O)c2nnc(NC(=O)C(C)(C)C)s2)c1 -1.73%, Cc1ccc(Cl)cc1NC(=O)Cn1nnc2sc3c(c2c1=O)CCC(C(C)(C)C)C3 (stereo unspecified) -1.78%, COc1ccc(N(Cc2cc3cc(OC)ccc3[nH]c2=O)C(=O)c2cccc(Cl)c2)cc1 5.23%, Brc1ccc(CN2CCc3nc(Nc4ccccc4)ncc3C2)s1 -10.1%, Cc1ccc(-n2c(=O)c3ccc(C(=O)NCc4ccccc4Cl)cc3n(CC(=O)Nc3cccc(Cl)c3)c2=O)cc1 -6.93%, Cc1nc2cc(C(=O)NCCC3=CCCCC3)ccc2n1-c1ccc(Br)cc1 1.62%, Cc1cc(C)c(NC(=O)CCN2C(=O)c3ccccc3Sc3ncccc32)c(C)c1 -21.1%, CCOc1ccc(C(=O)NCc2nnnn2-c2ccc(C)c(C)c2)cc1OCC 6.74%, CCCCCNC(=O)c1ccc2c(c1)ncn2-c1cccc(C)c1 -21.2%, Cc1cccc(C(=O)Nc2nnc(S(=O)(=O)N(C)Cc3ccc(Cl)cc3)s2)c1 7.18%, CCOC(=O)CNC(=O)CSc1cn(CC(=O)N2CCCCCC2)c2ccccc12 -3.52%, CSc1nc(Nc2ccc(C)cc2C)cc(-c2ccccc2)n1 5.35%, N#Cc1nc(-c2ccc(COc3ccccc3)o2)oc1NCc1cccnc1 1.75%, COc1cc(CNC(=O)c2sc3ncccc3c2-n2cccc2)cc(OC)c1OC -0.634%, Cc1cccc(Cn2c(=O)n(CC3CCC(C(=O)NC(C)C)CC3)c(=O)c3sccc32)c1 (stereo unspecified) -9.99%

outcome, inactive:
COc1cc(C(=O)Nc2cc(C)c(O)c(-c3nc4cc(Cl)ccc4o3)c2)cc(OC)c1OC, COc1cccc(CNC(=O)Nc2cn(CC(C)C)c(=O)c3ccccc23)c1, COc1ccc(OC)c(CNC(=O)c2cc3c(=O)oc4ccc(C)cc4c3s2)c1, O=C(c1ccc2c(c1)N(Cc1ccccc1F)C(=O)c1ccccc1S2=O)N1CCC(Cc2ccccc2)CC1 (stereo unspecified), CCc1nn(CC(=O)NCC(C)c2ccccc2)c(=O)c2cc3occc3n12 (stereo unspecified), O=C1COc2ccc(-c3cc(-c4ccc(Cl)cc4)c4c(n3)-c3ccccc3OC4)cc2N1, CN(Cc1ccccc1)C(=O)C1CCN(S(=O)(=O)c2ccc3c(c2)oc(=O)n3C)CC1, COC(=O)c1cc2c(cc1NC(=O)c1cnn(-c3ccccc3)c1-n1cccc1)OCO2, COc1cccc(C2CC(=O)Nc3cc(OC)c(OC)c(OC)c32)c1OC(C)C (stereo unspecified), COc1ccc(NC(=O)CN2C(=O)C(C)(C)c3ccccc32)cc1Cl, CSc1ccc(CCNC(=O)C2=C(C)C(=O)OC23CCCCC3)cc1, Cc1cccc(N2CCN(C(=O)Cn3ncc4c3-c3cc(C)ccc3OC4)CC2C)c1 (stereo unspecified)
